Hit rate of the full screen: of about 43,000 compounds, about 200 (0.47%) were called active. Inconclusive results (about 12%) are left out. Calls follow the shape of the dose curve; as a rule, active = well fitted cell-killing curve with a large enough effect; inconclusive = small, poorly fitted or top-dose-only effect, or effect the other way; inactive = flat fitted curve, though single readings scatter. Some of the results follow.
Experiment: Cell viability qHTS assay in S16 Pmp22-F2sN cells; also: nearly all actives have a fitted effect of over 65% in size
Conditions: S16 Pmp22-F2sN Schwann cells (luciferase reporters placed in the Pmp22 gene) viability, CellTiter-Glo, 24 h; series mostly up to 57.5 µM; activity change, negative = cytotoxicity: at the top concentration
Outline: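 S16 Schwann cells carrying the Pmp22-F2sN reporter, seeded in 1536-well format, were exposed to library compounds for 24 h at 37C. Viability was read as CellTiter-Glo luminescence after 15 min at room temperature.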
% is scaled to controls: 0 for no effect and ±100 for the full control effect.

Compound	activity change, negative = cytotoxicity
O=S(=O)(c1ccccc1)n1nc(-c2ccc(Cl)cc2)nc1NCc1ccc(F)cc1	inactive: -1.17%
Cc1cc(C)c(NC(=O)CN(c2ccccc2)S(=O)(=O)N(C)C)c(C)c1	inactive: 11.7%
Cc1oc2ncn(CC(C)C)c(=O)c2c1C(=O)N1CCN(c2ccccc2F)CC1	inactive: -2.3%
CCc1ccc(NC(=O)C2(c3cccs3)CCOCC2)cc1	inactive: 19.6%
Clc1ccc(-c2nnn3c2nc(N2CCCCC2)c2ccccc23)cc1	inactive: 13.2%
Cc1ccccc1NC(=O)c1cc2ccccc2o1	inactive: -5.74%
O=c1n(Cc2ccc([N+](=O)[O-])cc2)c2ccccc2c2nc(-c3ccccc3)nn12	inactive: 3.83%
Cc1ccc(NC(=O)N(Cc2c[nH]c3ccccc23)C2CCCCCC2)cc1C	inactive: -14.1%
O=C(CS(=O)(=O)c1ccc(Cl)cc1)Nc1nc2ccc(Br)cc2s1	inactive: -2.55%
COc1ccc(CCNC(=O)CCN2N=C(c3ccccc3)CCC2=O)cc1OC	inactive: 6.33%
Cc1c(NC(=O)Nc2ccccc2C(F)(F)F)c(=O)n(-c2ccccc2)n1C	inactive: 2.5%
Cn1c(=O)n(C)c2cc(CNCc3ccc(F)cc3)ccc21	inactive: 1.59%
Cc1ccc(C(=O)N2CCc3cc(CNC(=O)c4ccccc4F)ccc32)cc1	inactive: -10.5%
CCOc1ccc(NC(=O)c2cccc3c(=O)c4c([nH]c23)CCCC4)cc1	inactive: 0.942%
Cc1ccc(Cn2cnc3nc4c(cc3c2=O)CCCC4)cc1	inactive: 0.0731%
Cc1cc(C)cc(-n2c(SCC(=O)Nc3ccccc3F)nc3c(oc4ccccc43)c2=O)c1	inactive: 4.76%
CC(C)OCCCNC(=O)Cn1c(-c2cccs2)cc2cc(F)ccc21	inactive: 11.5%
COc1ccc(N2CCN(CCCNC(=O)c3sc4ncccc4c3-n3cccc3)CC2)cc1	inactive: -5.03%
COc1cc2nc(NCCc3ccc(Cl)cc3)n3nc(-c4ccccc4)nc3c2cc1OC	inactive: 0.866%
CCOc1cc(C(=O)N2CC(=O)Nc3ccc(F)cc3C2c2ccccc2)cc(OCC)c1OCC (centres undefined)	inactive: -5.88%
CCOc1cc(-c2cc(C(=O)O)c3c(-c4ccccc4)[nH]nc3n2)ccc1O	inactive: -1.31%
COc1ccc(NC(=O)Cn2nc(C)c3c(C)n(-c4ccccc4)nc3c2=O)cc1OC	inactive: -3.06%

Compound	activity change, negative = cytotoxicity
CCN(C(=O)c1nn(C)c2c1CSc1ccccc1-2)c1cccc(C)c1	inactive: 1.34%
O=C(CCSCc1ccccc1Cl)NCCc1ccccc1	inactive: 0.286%
Cc1c(-c2cccc(NC(=O)Cc3ccccc3)c2)nc2ncccn12	inactive: 5.36%
O=C(Cn1ccn(-c2ccc(F)c(F)c2)c(=O)c1=O)NCc1ccccc1	inactive: -0.127%
CCCn1cc(S(=O)(=O)c2ccc(OCC)cc2)c(=O)c2cc(C)ccc21	inactive: 7.26%
CCOc1ccc(-c2c(C)nn3c(C)c(C(=O)NC(C)c4ccccc4)cnc23)cc1OCC (centres undefined)	inactive: -1.91%
CN(Cc1ccccc1)C(=O)c1c[nH]c2ccc(S(=O)(=O)Nc3ccccc3F)cc2c1=O	inactive: 9.92%
Cc1cc(C)c(NC(=O)c2cc(S(=O)(=O)N3CCCC3)cn2C)c(C)c1	inactive: -2.56%
Cc1ccc(OCCSc2nc3ccccc3n2CC(=O)N2CCOCC2)cc1C	inactive: 8.02%
COc1cc(Cl)c(S(=O)(=O)N2CCN(c3c(C)cccc3C)CC2)cc1Cl	inactive: 8.23%
COc1ccc(CNc2nc(-c3ccccc3)nn2C(=O)c2ccccc2OC)cc1	inactive: -8.99%
COC1(C(F)(F)F)NC(=O)N(c2ccc(F)cc2)C1=O (centres undefined)	inactive: -0.53%
CSc1ncc2c(n1)-c1ccccc1N(Cc1ccccc1C)S2(=O)=O	inactive: 3.69%
COc1ccc(-n2c(=O)c3c(c4cc(OC)ccc4n3C)n(Cc3c(F)cccc3Cl)c2=O)cc1	inactive: -2.12%
COc1cccc(CCNC(=O)c2cnc3sc(N4CCCC4)nn3c2=O)c1	inactive: 5.17%
Cc1cccc(-n2c3nc(=O)n(C)c(=O)c-3cc3c(C)nn(-c4ccccc4)c32)c1C	inactive: 10.8%
CC1CCc2c(sc3nnn(CC(=O)Nc4ccccc4Cl)c(=O)c23)C1 (centres undefined)	inactive: 2.04%
COc1ccc(Cl)cc1NC(=O)N1CCC2(CC1)Oc1ccccc1C(=O)N2Cc1ccc(F)cc1	inactive: 3.28%
CCOC(=O)c1cnn(-c2cccc(Cl)c2)c1C1CCN(C(=O)OC(C)(C)C)CC1	inactive: -22.2%
Cc1ccc(OCCSc2nc3ccc(NC(=O)COc4ccc(C)cc4)cc3s2)cc1	inactive: 16.6%
CCOC(=O)C1=C(CN(CC)Cc2ccccc2)NC(=O)NC1c1ccc(Cl)cc1 (centres undefined)	inactive: -15.6%
COc1ccc(NC(=O)N2CCC(n3c(C)nc4cccnc43)CC2)cc1OC	inactive: 1.31%

Compound	activity change, negative = cytotoxicity
Cc1cccc(COc2ccc(-c3cc(C(F)(F)F)n4nc(C)cc4n3)cc2)c1	inactive: -2.34%
Cc1ccc(Nc2c3c(nc4ccccc24)CCC3)cc1F	inactive: -14.6%
Cc1ccc(CNC(=O)CCN2C(=O)C(C)Oc3ccc(C)cc32)cc1 (centres undefined)	inactive: 14.7%
CCc1ccc(-c2nc3cc(NC(=O)c4ccc(F)cc4)ccc3o2)cc1	inactive: 20.9%
CCCCNC(=O)c1ccc(-c2nc(CN3CCc4ccccc43)c(C)o2)cc1	inactive: 6.2%
COc1ccc(OC)c(S(=O)(=O)NCCc2sc(C)nc2C)c1	inactive: 1.39%
Cc1c(Cl)cccc1NC(=O)CCS(=O)(=O)c1cccc2nsnc12	inactive: -3.47%
COc1ccccc1N(CC(=O)NCCSc1ccccc1)S(=O)(=O)c1ccc(C)cc1	inactive: -25.1%
Cc1ccc(NC(=O)CCNS(=O)(=O)c2cccs2)cc1F	inactive: 1.86%
COc1cccc(-c2nn(C)c3sc(C(=O)N4CCN(c5cccc(C(F)(F)F)c5)CC4)cc23)c1	inactive: -7.85%
Cc1ccc(NC(=O)C2CCCN(S(=O)(=O)c3ccc(C)cc3)C2)cc1 (centres undefined)	inactive: -5.08%
CCOC(=O)c1c(S(=O)(=O)N2CCN(c3cc(Cl)ccc3C)CC2)c(C)n(C)c1C	inactive: -16.1%
Cc1ccc(NC(=O)Cn2nc(-c3ccc(Cl)cc3)c3ccccc3c2=O)cc1	inactive: 19.4%
COc1ccc(NC(=O)Cn2ncc3c4ccccc4n(Cc4ccccc4)c3c2=O)cc1OC	inactive: 20.8%
COc1ccccc1-c1ncnn1-c1sc2c(c1C#N)CCCCC2	inactive: 3.75%
COc1cc(NS(=O)(=O)c2ccc3c(c2)OCC(C(=O)N2CCCC2)O3)cc(OC)c1 (centres undefined)	inactive: -2.44%
COC(=O)c1ccc(NC(=O)C(c2ccccc2)N2Cc3ccccc3C2=O)cc1 (centres undefined)	inactive: -2.5%
Cc1cccc(CCNC(=O)CCc2c(C)nc3c(-c4ccc(F)cc4)c(C)nn3c2C)c1	inactive: -4.67%
Cc1nc(-c2ccc(Cl)cc2)sc1CCNC(=O)C(=O)Nc1ccccc1C#N	inactive: -2.38%
CCCc1ccc(OC(=O)c2sc3ncn(Cc4cccc(F)c4)c(=O)c3c2C)cc1	inactive: 6.91%

From PubChem BioAssay AID1508642 (National Center for Advancing Translational Sciences (NCATS), 2021)
